{
  "source": "PubChem BioAssay AID686978",
  "about": "(National Center for Advancing Translational Sciences (NCATS), 2013)",
  "note": "In all, about 420,000 compounds went through this assay and about 64,000 (15%) were called active. This list was built around the results that the source calls inconclusive (neither active nor inactive); the mix of calls is not that of the screen. The call rests on the fitted dose curve; in most records, active means well fitted inhibition curve with a large enough effect; inconclusive means small, poorly fitted or top-dose-only effect; inactive means flat fitted curve, though single readings scatter. Potencies of inconclusive entries are left out as doubtful fits. On the % scale 0 is the no-effect control and ±100 the full control effect; potency means the concentration at half of the fitted maximal effect; tags describe the fitted curve by direction and shape.",
  "data": [
    {"assay": "qHTS for Inhibitors of human tyrosyl-DNA phosphodiesterase 1 (TDP1): qHTS in cells in absence of CPT; further: nearly all actives have a fitted effect of over 55% in size", "conditions": "DT40 Tdp1-/- hTDP1 cells, no CPT, ATP luminescence, 48 h; activity change, negative = growth inhibition: at 46.2 µM (top of the series) unless noted", "procedure,_shortened": "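Growth of hTDP1-complemented DT40 Tdp1-knockout cells is measured by ATP luminescence after at least 48 hr compound exposure at 37 °C, with DMSO substituting for the 20 nM CPT used in the parallel screen.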", "values": [
      {"smiles": "N[C@H](C(=O)O)[C@H]1C[C@H]1C(=O)O", "Potency": "inactive"},
      {"smiles": "O=C(c1ccco1)N1CCN(Cc2csc(-c3ccccc3Cl)n2)CC1", "Potency": "active: 20.6 µM"},
      {"smiles": "O=C(Nc1cccc(Cl)c1N1CCOCC1)c1cccnc1", "Potency": "inconclusive [inhibitor, single point]"},
      {"smiles": "CC(=O)Nc1ccc(S(=O)(=O)NNC(=O)c2cccc3ccccc23)cc1", "Potency": "inconclusive [inhibitor, full curve]"},
      {"smiles": "Cc1ccc(-n2c(SCC(=O)NCc3ccco3)nc3sc4c(c3c2=O)CC(C)(C)SC4)cc1", "Potency": "inactive"},
      {"smiles": "CCC(C(=O)NCc1ccc(F)cc1)N(Cc1ccco1)C(=O)c1snc(C(N)=O)c1N", "note": "(stereo unspecified)", "Potency": "inactive"},
      {"smiles": "COc1ccccc1N(CC(=O)NCCSCc1cccc(C)c1)S(=O)(=O)c1ccccc1", "Potency": "inconclusive [inhibitor, single point]"},
      {"smiles": "O=c1c2ccccc2c(-c2ccc(F)cc2)nn1-c1ccc(C(F)(F)F)cc1", "Potency": "inconclusive [inhibitor, single point]"},
      {"smiles": "Cc1ccc(SCC(=O)OC(C)C(=O)Nc2ccc(S(N)(=O)=O)cc2)cc1C", "note": "(stereo unspecified)", "Potency": "inconclusive [inhibitor, single point]"},
      {"smiles": "O=C(O)c1cc2cc(Cl)ccc2oc1=O", "Potency": "inactive"},
      {"smiles": "Cc1ccc(C(=O)N[C@H](C(=O)Nc2cccc(S(=O)(=O)N3CCOCC3)c2)C(C)C)cc1", "Potency": "inconclusive [inhibitor, single point]"},
      {"smiles": "COc1ccccc1N1CCN(C2CCCN(S(=O)(=O)c3cccc(Cl)c3)C2)CC1", "note": "(stereo unspecified)", "Potency": "inconclusive [inhibitor, single point]"},
      {"smiles": "COc1ccc(CCN(C(=O)C(F)(F)F)C(C(=O)NC2CCCC2)c2cccs2)cc1OC", "note": "(stereo unspecified)", "Potency": "active: 1.78 µM"},
      {"smiles": "CCn1nc(-c2ccccc2)c(-c2ccccc2)c(C(=O)Nc2ccccc2C(N)=O)c1=O", "Potency": "inconclusive [inhibitor, single point]"},
      {"smiles": "O=C(NCc1ccccc1)c1cc(C2CCCCN2C(=O)OCCF)on1", "note": "(stereo unspecified)", "Potency": "inactive"},
      {"smiles": "CCOC(=O)C1=C(C)OC(N)=C(C#N)C1c1ccc(OC)c(CSc2ccccn2)c1", "note": "(stereo unspecified)", "Potency": "inconclusive [inhibitor, single point]"},
      {"smiles": "O=C(NCCCN1CCOCC1)c1cc(-c2ccc(Cl)s2)nc2ccccc12", "Potency": "inconclusive [inhibitor, single point]"},
      {"smiles": "CCCCn1c(CN2CCN(c3cccc(Cl)c3)CC2)nc2c1c(=O)[nH]c(=O)n2C", "Potency": "active: 3.26 µM"},
      {"smiles": "Cc1cc(NC(=O)c2cccs2)cc(-c2nc3ncccc3o2)c1O", "Potency": "inactive"},
      {"smiles": "COc1ccc(-n2nnnc2C2CCN(S(=O)(=O)c3cccc(Cl)c3C)CC2)cc1", "Potency": "active: 25.9 µM"},
      {"smiles": "CC1(C)CC(=O)c2sc(NS(=O)(=O)c3ccc([N+](=O)[O-])cc3)nc2C1", "Potency": "inconclusive [inhibitor, single point]"},
      {"smiles": "COc1ccccc1CN1C[C@@H]2C[C@@H](c3ccccc3C)N3CCC[C@@]23C1=O", "Potency": "active: 29.1 µM"},
      {"smiles": "CCN1CCN(C(=O)N(c2ccccc2)c2ccccc2)CC1", "activity change, negative = growth inhibition": "inconclusive: -38.9% [inhibitor]"},
      {"smiles": "NC(=O)c1cc(N2C(=O)C=CC2=O)ccc1Cl", "Potency": "active: 16.4 µM"},
      {"smiles": "CCN(CC(=O)NCc1cccs1)C(=O)c1cccc(S(=O)(=O)Nc2ccc(C)cc2)c1", "Potency": "inconclusive [inhibitor, single point]"},
      {"smiles": "CS(=O)(=O)c1ccccc1C(=O)Nc1ccc(-c2nc3ccccc3[nH]2)cc1", "Potency": "inconclusive [inhibitor, single point]"},
      {"smiles": "CCCOC(=O)N[C@@H]1C(=O)N2C(C(=O)OCCC)=C(C)CS[C@H]12", "Potency": "inconclusive [inhibitor, partial curve, poor fit]"},
      {"smiles": "CC(C)C1C(=O)N(Cc2cn(CCC3OCCO3)nn2)CCS(=O)(=O)N1Cc1ccc(-c2ccc(Cl)c(Cl)c2)cc1", "note": "(stereo unspecified)", "Potency": "active: 0.92 µM"},
      {"smiles": "CC1(C)S[C@@H]2[C@H](NC(=O)[C@H](N)c3ccccc3)C(=O)N2[C@H]1C(=O)OC1OC(=O)c2ccccc21", "note": "(stereo partly specified)", "Potency": "active: 8.2 µM"},
      {"smiles": "N#Cc1ccc(C(=O)N(Cc2ccco2)Cc2cccs2)cc1", "Potency": "inconclusive [inhibitor, single point]"},
      {"smiles": "COc1ccc(C)cc1S(=O)(=O)NC(C)C(=O)NC1CC1", "note": "(stereo unspecified)", "Potency": "inactive"},
      {"smiles": "COc1ccc(N(CC(=O)N2CCN(c3ccccc3)CC2)S(=O)(=O)c2c(C)noc2C)cc1", "Potency": "inconclusive [inhibitor, partial curve]"},
      {"smiles": "COc1cccc(Nc2cc(-c3ccccc3)nc(C)n2)c1", "Potency": "inconclusive [inhibitor, single point]"},
      {"smiles": "Cc1ccc(S(=O)(=O)N2[C@H](CC(=O)c3ccc(Cl)c(Cl)c3)OC[C@@H]2C(C)C)cc1", "Potency": "inactive"},
      {"smiles": "O=C(/C=C/c1ccccc1Cl)Nc1ccncc1", "Potency": "inconclusive [inhibitor, single point]"},
      {"smiles": "C[C@@H](C(=O)N[C@@H](Cc1ccccc1)C(=O)O)n1nnc2ccccc2c1=O", "Potency": "inactive"},
      {"smiles": "CCN(CC)S(=O)(=O)c1ccc(N2CCOCC2)c(NC(=O)c2cc3ccccc3oc2=O)c1", "Potency": "active: 16.4 µM"},
      {"smiles": "CCCOc1ccc(C(=O)Nc2ccc(NC(=O)c3cccc(Cl)c3)cc2)cc1", "Potency": "inactive"},
      {"smiles": "Nc1ccn(C2CCCCO2)c(=O)n1", "note": "(stereo unspecified)", "Potency": "inactive"},
      {"smiles": "COC(=O)c1ccccc1NC(=S)N(Cc1ccc2c(c1)OCO2)Cc1cc2ccc(OC)cc2[nH]c1=O", "activity change, negative = growth inhibition": "inconclusive: -33.6% [inhibitor]"},
      {"smiles": "Cc1cccc(C)c1NC(=O)CSCC(=O)c1ccc(O)c(O)c1", "Potency": "inconclusive [inhibitor, single point]"},
      {"smiles": "O=C(C1CC(=O)N(c2ccc3c(c2)OCCO3)C1)N1CCN(Cc2ccccc2F)CC1", "note": "(stereo unspecified)", "Potency": "inactive"},
      {"smiles": "COC(=O)Cn1c2[n+](c3ccccc31)CC(O)CS2", "note": "(stereo unspecified)", "Potency": "inactive"},
      {"smiles": "COc1ccc(/C=C/C(=O)Nc2cc(F)ccc2C)cc1S(=O)(=O)N1CCOCC1", "Potency": "inconclusive [inhibitor, partial curve, poor fit]"},
      {"smiles": "CCOc1cc([N+](=O)[O-])cc(/C=N/NC(=O)c2c(-c3ccccc3)noc2C)c1O", "Potency": "inconclusive [inhibitor, single point]"},
      {"smiles": "CC1CCN(C(c2ccc(N(C)C)cc2)c2nnnn2Cc2ccccc2)CC1", "note": "(stereo unspecified)", "Potency": "inconclusive [inhibitor, single point]"},
      {"smiles": "COc1ccc(NS(=O)(=O)c2ccc(SC)cc2)c(OC)c1", "Potency": "inconclusive [inhibitor, partial curve]"},
      {"smiles": "Cc1cccc(Nc2ncnc3c2cnn3C)c1C", "Potency": "inconclusive [inhibitor, partial curve, poor fit]"},
      {"smiles": "O=C(c1ccccc1)c1ccc(NCCCn2ccnc2)c([N+](=O)[O-])c1", "Potency": "inconclusive [inhibitor, single point]"},
      {"smiles": "COc1ccc(C)c2sc(N(Cc3cccnc3)C(=O)COc3ccccc3)nc12", "Potency": "inconclusive [inhibitor, single point]"},
      {"smiles": "COc1ccc(/C=N/n2cnn(Cc3ccccc3Cl)c2=S)cc1", "Potency": "inconclusive [inhibitor, single point]"},
      {"smiles": "O=C(NC1CCCc2ccccc21)c1cccc(S(=O)(=O)N2CCOCC2)c1", "note": "(stereo unspecified)", "Potency": "inconclusive [inhibitor, single point]"},
      {"smiles": "C1=Cc2ccccc2/C1=C\\c1cc2c3c(c1)CCCN3CCC2", "Potency": "active: 5.01 µM"},
      {"smiles": "CCCCN1C(N)=NC[C@@H]1CC1CCCCC1", "Potency": "active: 16.4 µM"},
      {"smiles": "CCc1ccc(S(=O)(=O)Nc2cc(-c3cn4ccccc4n3)ccc2C)cc1", "Potency": "inconclusive [inhibitor, single point]"},
      {"smiles": "COc1ccc(C2=NN(C(=O)CSc3nccn3C)C(c3ccco3)C2)cc1", "note": "(stereo unspecified)", "Potency": "inconclusive [inhibitor, partial curve]"},
      {"smiles": "CC(c1ccccc1)n1c(CO)nc2ccccc21", "note": "(stereo unspecified)", "Potency": "inconclusive [inhibitor, single point]"},
      {"smiles": "CCCCn1nc2cc(C(=O)NCCc3cccs3)ccc2c1OCC", "Potency": "inconclusive [inhibitor, single point]"},
      {"smiles": "COc1cc(C)c(CN2CCOc3ccc(C(O)c4cccnc4)cc3C2)cc1C", "note": "(stereo unspecified)", "Potency": "active: 18.4 µM"},
      {"smiles": "O=C(COC(=O)C1CC2CCCC(C1)C2=O)c1cccc(Br)c1", "note": "(stereo unspecified)", "Potency": "inconclusive [inhibitor, single point]"},
      {"smiles": "CC1CC(C)CN(C(=O)CSc2nnc(N)s2)C1", "note": "(stereo unspecified)", "Potency": "inactive"},
      {"smiles": "O=C(c1nc2ccccn2c1CN1CCCC(O)C1)N1CCN(C2CCCCC2)CC1", "note": "(stereo unspecified)", "Potency": "inactive"},
      {"smiles": "COC(=O)CCCC(=O)N1CCC(CO)(CCc2ccccc2)CC1", "Potency": "inactive"},
      {"smiles": "Cc1ccc2c(c1)N(C(=O)N1CCC(C(=O)NC3CCCCCC3)CC1)CCO2", "Potency": "inconclusive [inhibitor, single point]"},
      {"smiles": "CC(C)C1C(C#N)=C(N)Oc2n[nH]c(-c3cccs3)c21", "note": "(stereo unspecified)", "Potency": "inactive"},
      {"smiles": "COc1cc2ccc(-c3ccc4ccccc4n3)cc2cc1OC", "Potency": "active: 6.51 µM"},
      {"smiles": "CC1CCCCN1CC(=O)Nc1ccccc1Sc1ccccc1", "note": "(stereo unspecified)", "Potency": "inconclusive [inhibitor, single point]"},
      {"smiles": "Cc1ccc(N=C2SC(C(=O)Nc3ccc(OC(F)(F)F)cc3)C(N)=C2C(=O)Nc2c(C)cc(C)cc2C)cc1", "note": "(stereo unspecified)", "Potency": "inconclusive [inhibitor, single point]"},
      {"smiles": "Cc1ccc(NC(=O)COc2ccccc2C=O)cc1Cl", "Potency": "inactive"},
      {"smiles": "O=C(CSc1nnc(CN2CCOCC2)n1-c1ccccc1)Nc1ccc(Cl)cc1", "Potency": "inactive"},
      {"smiles": "O=c1c2ccccc2[nH]c(=S)n1CCCN1CCN(c2ccccc2)CC1", "Potency": "inconclusive [inhibitor, partial curve]"}
    ]}
  ]
}
